In PubChem BioAssay AID488969 (Vanderbilt High Throughput Screening Facility, 2010) one finds z-score data, which are given here for 110 compounds.

Each structure is given as a SMILES string. In all, about 110,000 compounds were measured (“z-score”: median about -0.1, highest 2% from about 2 on). This is one part of the list.

This test has as its target Metabotropic glutamate receptor 8 (Rattus norvegicus) (UniProt P70579). Nature of the test: rat mGluR8 modulators via GIRK flux, primary screen, cell-based, thallium flux, HTS (AID 488969). The conditions noted are these: HEK293 rat mGluR8, GIRK (G protein-gated inwardly rectifying potassium channel) thallium flux, FluoZin2; at 10 µM; stronger effect = higher value; submaximal glutamate (EC20) added with thallium.
Chain of UniProt P70579 (P70579 whole entry, looked up): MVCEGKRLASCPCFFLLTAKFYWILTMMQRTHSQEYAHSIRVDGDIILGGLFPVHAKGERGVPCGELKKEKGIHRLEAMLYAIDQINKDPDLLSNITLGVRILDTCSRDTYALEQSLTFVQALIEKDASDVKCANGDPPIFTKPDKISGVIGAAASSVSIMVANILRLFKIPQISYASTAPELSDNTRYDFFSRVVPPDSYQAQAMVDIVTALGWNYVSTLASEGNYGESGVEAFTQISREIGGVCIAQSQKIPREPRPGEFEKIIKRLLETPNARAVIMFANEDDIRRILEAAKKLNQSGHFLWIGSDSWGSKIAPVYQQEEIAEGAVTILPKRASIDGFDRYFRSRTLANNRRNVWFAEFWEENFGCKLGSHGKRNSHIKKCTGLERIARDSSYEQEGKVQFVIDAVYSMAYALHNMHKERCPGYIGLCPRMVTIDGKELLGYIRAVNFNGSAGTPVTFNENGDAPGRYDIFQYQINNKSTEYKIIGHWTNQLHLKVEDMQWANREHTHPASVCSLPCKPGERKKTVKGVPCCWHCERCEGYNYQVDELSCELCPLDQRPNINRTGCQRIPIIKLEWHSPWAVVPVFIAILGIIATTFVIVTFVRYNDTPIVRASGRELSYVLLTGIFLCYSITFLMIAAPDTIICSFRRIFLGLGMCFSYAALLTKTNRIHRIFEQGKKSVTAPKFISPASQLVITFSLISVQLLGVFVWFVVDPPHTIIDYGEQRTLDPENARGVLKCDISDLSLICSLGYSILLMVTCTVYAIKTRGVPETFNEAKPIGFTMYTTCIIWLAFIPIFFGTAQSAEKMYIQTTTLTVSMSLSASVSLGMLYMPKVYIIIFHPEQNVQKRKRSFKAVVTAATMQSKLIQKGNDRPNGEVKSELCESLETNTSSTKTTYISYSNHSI
For `CCOC(=O)C1CCCc2c1[nH]c1c(C(N)=O)cccc21` (stereo not given), the z-score is -0.185. As for `Cc1ccc(N(C(=O)C(F)(F)F)C(C(=O)NC2CCCCC2)c2cccs2)cc1` (stereo not given), the z-score was -0.0699. As for `O=C(Nc1ccccc1-c1nnn(CC(=O)N2CCN(c3ccccc3)CC2)n1)c1cccs1`, the z-score is -0.424. To `Nc1c(C(=O)O)sc2nc(-c3ccccc3)c3c(c12)CCCC3` belongs 0.595; to `COc1cccc2c1C(=O)c1ccc3ccccc3c1C2=O`, -0.00661; to `N#CC12C(N)=NC3(OCCO3)C1(C#N)C1=C(CCC1)NC2c1ccccc1` (stereo not given), 0.0587. To `COc1cc(NC(=O)CSc2nnc(Cn3nnc4ccccc43)n2C)cc(OC)c1` belongs 0.0173; to `COc1ccccc1C(=O)Nc1sc2c(c1C(=O)NCc1ccco1)CCCC2`, -0.436. To `COC(=O)c1sc2ccccc2c1-n1cccc1C(=O)C(=O)Nc1ccc(OC)cc1` belongs -0.157; to `Cc1nc(COC(=O)c2c(C)nn(-c3ccccc3)c2C)cs1`, -1.35; to `COCCNC(=O)CCSc1nc(-c2ccc(OC)cc2)cc(C(F)(F)F)n1`, -0.54. The compound `COc1ccc(-n2sc3c(c2=S)-c2cc(OC)ccc2NC3(C)C)cc1` yielded a z-score of -0.291. `Cc1cccnc1NC(=S)NC(=O)/C=C/c1ccco1` came in with a z-score of 0.37.

Turning to `COC(=O)CSc1nc2cc(C)ccc2cc1C#N`, the z-score is -0.507. To `O=C(NCc1nc2ccccc2[nH]1)c1cccc(S(=O)(=O)N2CCOCC2)c1` belongs 0.567; to `CC1CCCN(c2cc3c(cc2[N+](=O)[O-])C(=O)N(c2ccccc2)C3=O)C1` (stereo not given), 1.45; to `CC(C)OC(=O)C(NC(=O)c1ccccc1)=C1CCCCC1`, 1.13. To `Cc1nc2ccccn2c1C(=O)NN` belongs 2.34. To `Cc1ccc(SCCNC(=O)C(C)C)cc1` belongs 0.141; to `CN(C)S(=O)(=O)N1CCN(C(=O)c2ccccc2)CC1`, -0.0976; to `CN(C)S(=O)(=O)c1ccc(C(=O)N2CCOCC2)cc1`, -0.081. Turning to `Oc1ccccc1/C=N/n1cnn(Cc2ccccc2Cl)c1=S`, the z-score was -0.192. Consider `O=C(Cn1nc(-c2ccccc2)c2ccccc2c1=O)Nc1ccc2c(c1)nc1n2CCOC1`, for which the z-score was -0.289. `CCOC(=O)N1CCN(C(=O)c2cc(OC)cc(OC)c2)CC1` registered a z-score of 0.429. For `CCOC(=O)C1=C(CNCc2ccc(C)cc2)NC(=O)NC1c1cc(C)ccc1C` (stereo not given), the z-score was determined as 0.326. The value for `CN1/C(=C\C(=O)COC(=O)CN2C(=O)C3CC=CCC3C2=O)C(C)(C)c2ccccc21` (stereo not given) was 0.537.

With `COC(=O)c1ccc(Cl)c(NC(=O)Cc2ccccc2[N+](=O)[O-])c1`, the z-score was -0.377. The value for `CC(C)NC(=O)c1onc(CSc2ccccc2F)c1C(=O)O` was -0.206; that for `COc1ccc(/C=C/C(=O)OCC(=O)N2CC(=O)Nc3ccccc32)cc1` was -0.658.

For the compound `O=C(NC12CC3CC(CC(C3)C1)C2)N1CCN(S(=O)(=O)c2ccc(Cl)cc2)CC1`, the z-score is -0.746.

Take `CCCCCC(=O)Nc1ccccc1N1CCOCC1`: the z-score is -0.386. For `Fc1ccc2c(c1)C(c1ccc(N3CCOCC3)cc1)=NNC(c1cccs1)=N2`, the z-score was -0.0523. To `Cc1cc(SCC(=O)c2cc(C)n(C)c2C)nc2ccccc12` belongs -0.0351; to `Cc1cc(C(F)(F)F)n2ncc(-c3ccccc3)c2n1`, 0.117; to `O=C(Nc1cccc2nsnc12)c1ccc(-c2cccc(Cl)c2)o1`, -0.205.

In the case of `COc1ccc(C(=O)Nc2ccc3c(c2)OCCO3)cc1`, the z-score is -0.168. The value for `Cc1ccc(C(=O)N/N=C\c2ccc(Br)o2)o1` was -0.541. The value for `CN(C(=O)N1CCN(c2ccccn2)CC1)c1ccccc1` was 0.828.

In turn, `CCOC(=O)c1c(-c2ccc(C)o2)csc1NC(=O)COC(=O)c1cccs1` had a z-score of 0.191. The value for `CCCCOC(=O)/C=C/c1c(C)[nH]c(=O)[nH]c1=O` was 0.829; that for `Cc1ccc(S(=O)(=O)c2nc(Nc3ccccc3)sc2Cl)cc1` was -0.00279. As to `CCOc1ccc(/C(O)=C2/C(=O)C(=O)N(CCN(CC)CC)C2c2ccco2)cc1` (stereo not given), the z-score was -0.086. `CN(C)CCCCNCCCNC(=O)/C=N\O` returned a z-score of -0.279. Turning to `CCOC(=O)CSc1nnc(CNC(=O)c2cccc(C)c2)n1-c1ccccc1OC`, the z-score stood at 0.0317. For `O=C(Oc1ccc(OC(=O)c2ccco2)c(S(=O)(=O)c2ccc(Br)cc2)c1)c1ccco1`, the z-score stood at 0.811. `O=C(CS(=O)(=O)Cc1ccccc1)N1CCN(c2cccc(C(F)(F)F)c2)CC1` came in with a z-score of 0.101. The value for `CCCCc1nc2ccccc2n2cc3c(=O)n(C)c(=O)n(C)c3c12` was -0.449; that for `COc1ccc(C2CC(C(F)(F)F)n3ncc(C(=O)NCc4cccnc4)c3N2)cc1OC` (stereo not given) was -0.109. Regarding `CCC(CCC(=O)Nc1cccc(C(=O)O)c1)C(=O)O` (stereo not given), the z-score was determined as 0.0473. To `COc1ccc(NS(=O)(=O)c2cc(NC(=O)c3ccc(F)cc3)ccc2OC)cc1` belongs -0.511.

As to `C=CCn1c(SCC(=O)Nc2nccs2)nnc1-c1ccco1`, the z-score was -0.146. Consider `CCn1c(SCC(=O)NCc2cccs2)nnc1-c1cccs1`, for which the z-score is 0.0957.

`CCn1c(SCC(=O)Nc2ccc(C)cc2)nc2nc3c(cc2c1=O)CCCC3`: the z-score stood at 0.307. `N#CC1=C(N)OC2=C(CC/C2=C\c2ccc(F)cc2)C1c1ccc(F)cc1` (stereo not given) gave a z-score of -0.231. As to `O=c1c2cc(N3CCOCC3)ccc2[nH]c(=S)n1CCCN1CCCCC1`, the z-score is 0.262. `C=CCNC(=O)COC(=O)c1ccc(Cl)c(S(=O)(=O)N(Cc2ccccc2)c2ccccc2)c1` displayed a z-score of -0.604. To `CCOC(=O)c1c(NC(=O)C2c3ccccc3Oc3ccccc32)sc(C(N)=O)c1C` belongs -0.282; to `O=C1c2ccccc2NC2CCCCCN12` (stereo not given), -0.883. The value for `O=C(Nc1ccon1)c1ccc(OC2CCCC2)cc1` was -0.108; that for `Cc1ccc(NC(=O)C(Nc2ccccc2)c2ccccc2)cc1` (stereo not given) was -0.923; that for `Cc1cc(C)cc(OCC(=O)NC2CCCc3ccccc32)c1` (stereo not given) was -0.1. To `O=C(O)CCC(=O)Nc1ccccc1N1CCOCC1` belongs -1.41; to `O=C(O)c1cccc(-n2cnnn2)c1`, -0.667. `COc1ccc(-c2nnc(-c3cc4c(ccc5ccccc54)oc3=O)o2)cc1` yielded a z-score of -0.09. The value for `c1ccc(-n2c(-c3ccncc3)nnc2N2CCOCC2)cc1` was 0.16; that for `Cn1c(=O)[nH]c(=O)c2c1nc(Sc1ncccn1)n2CCCc1ccccc1` was 0.89. `Cn1c(N2CCC(C(N)=O)CC2)nc2c1c(=O)n(Cc1cccc(Br)c1)c(=O)n2C`: the z-score was -1.26.

For `Cc1ccc(CN2C(=O)CCC2C(=O)NCc2ccco2)cc1` (stereo not given), the z-score was 0.173. To `c1csc(-c2nc3ccccc3[nH]2)c1` belongs -0.315.

For the compound `CC(C)(C)c1ccc(S(=O)(=O)O/N=C2/CCCCC2c2ccc([N+](=O)[O-])cc2[N+](=O)[O-])cc1` (stereo not given), the z-score is -0.305. To `CCN1C(=O)c2cccc3cccc1c23` belongs -0.389; to `Cc1cc2cc(CCNC(=O)c3ccc(Br)o3)c(=O)[nH]c2cc1C`, -0.493. On to `CCOc1ccccc1NC(=O)CCN(c1ccc(C)cc1)S(=O)(=O)c1ccccc1`, for which the z-score is -0.5. The value for `Oc1cccc(C=NCc2ccccc2)c1` was -0.687. The value for `N#Cc1nc(COc2ccccc2Cl)oc1N1CCCCCC1` was 0.0523. Turning to `COc1cc2c(C#N)c(N3CCc4ccccc4C3)nc(N)c2c(N)n1`, the z-score was -0.142. The value for `CSCCC(NS(=O)(=O)c1ccc2c(c1)oc(=O)n2C)C(=O)NC1CCCc2ccccc21` (stereo not given) was 0.148; that for `COC(=O)c1c(NC(=O)Cn2cnc([N+](=O)[O-])n2)sc2c1CCC(C)C2` (stereo not given) was -0.0716; that for `O=S1(=O)N=C(N/N=C/c2ccccn2)c2ccccc21` was -0.0441. The value for `Cc1ccc(C2=N/C(=C\c3cccnc3)C(=O)O2)cc1` was -0.75. The value for `CCSc1nnc(NC(=O)CSc2nnc(-c3c[nH]c4ccccc34)n2CC)s1` was -1.46; that for `COc1ccccc1NS(=O)(=O)c1ccc(N/N=C(\C)C(C)C)c([N+](=O)[O-])c1` was -0.662.

As to `COc1ccc(Cn2c(SCc3ccccc3C)nc3cc(OC)c(OC)cc3c2=N)cc1`, the z-score is 0.159. `Cc1nnc(NC(=O)c2c(F)cccc2F)s1`: the z-score is -0.476. Turning to `CCOC(=O)N1CCN(c2ccc(C(=O)c3ccccc3)cc2F)CC1`, the z-score was -1.65. `O=C(CN1CCN(c2nc(-c3ccccc3)cs2)CC1)NCc1ccc2c(c1)OCO2` returned a z-score of -0.644. To `COc1cc(C)c(-c2cc(C(=O)O)c(C)o2)cc1C(C)C` belongs -0.106; to `Cc1nc(NCc2ccco2)c2oc3ccccc3c2n1`, -1.44. For `COc1ccc2c(C)cc(N3CCOCC3)nc2c1`, the z-score amounted to 0.0241. Turning to `COC(=O)C1(C(F)(F)F)N=C(N(C)C)OC(N(C)C)=N1`, the z-score came to 1.08. To `CCCCC(=O)NC(NC(=S)N1CCCCCC1)C(Cl)(Cl)Cl` (stereo not given) belongs -0.591. The value for `CCc1ccc(OCC(=O)NC(NC(=S)Nc2ccccc2)C(Cl)(Cl)Cl)cc1` (stereo not given) was -0.00519. The value for `Cc1ccc(S(=O)(=O)N2CCN(C(=O)COC(=O)COc3ccccc3)CC2)cc1` was -0.0706; that for `COc1ccc(N/C=C/C(=O)c2ccc(C)cc2)c([N+](=O)[O-])c1` was -0.0506. `CCOC(=O)C1CCCN(C(=O)Cc2ccc(OC)c(OC)c2)C1` (stereo not given) yielded a z-score of 0.106. `O=C(c1ccccc1Oc1ccc(C(F)(F)F)cc1[N+](=O)[O-])N1CCOCC1`: the z-score is -0.308.

The compound `Cc1c(-n2c(CN3C(=O)c4ccccc4C3=O)nc3ccccc3c2=O)c(=O)n(-c2ccccc2)n1C` registered a z-score of 0.0572. The value for `O=C(CSc1nnc(C2CC2)n1Cc1ccccc1)NCc1ccccc1` was -0.164; that for `COC(=O)c1cc(OC)c(OC)cc1NC(=S)N1CCN(C/C=C/c2ccccc2)CC1` was -0.713. On to `CN(Cc1ccccc1)C(=O)CCCn1c(=O)[nH]c2cc(Cl)ccc2c1=O`, for which the z-score worked out at 0.953. `COc1ccc2c(c1[N+](=O)[O-])CCC/C2=N/OC(=O)c1ccccc1SC` registered a z-score of -0.13. `COc1cc(C(C)=O)ccc1Oc1ncnc2c1cnn2-c1ccc(C)c(C)c1`: the z-score was 0.00306. As for `CNC(=O)NC(=O)CSc1nnc(C(F)(F)F)n1C`, the z-score was -0.759. To `Fc1ccccc1CSc1nc2ncccc2[nH]1` belongs -0.00473. As to `Nc1ccc2nc(SCc3ccc([N+](=O)[O-])cc3)sc2c1`, the z-score was -0.102. Consider `COc1ccc(CCNC(=O)c2cc(-c3cc(Cl)cc(Cl)c3)oc2C)cc1`, for which the z-score amounted to 0.0176. Turning to `O=C(Cn1[nH]c(=O)c2ccccc2c1=O)NC1CCN(Cc2ccccc2)CC1`, the z-score is -0.0419. The value for `COc1ccccc1NC(=O)CSc1nnc(-c2ccncc2)o1` was 0.38; that for `O=C(OCc1ccc(Cl)c(Cl)c1)c1ccccn1` was 0.0457. Compound `COc1ccc(C(=O)c2sc(Nc3ccccc3)c(C(=O)Nc3ccc(OC)c(OC)c3)c2N)cc1` displayed a z-score of -0.23.
